# According to the supplement of paper PMC8813932:
# Where a name gives a salt, the structure may show the parent alone. ± gives the standard deviation of the averaged measurements. The list shows a part of the results. Repeats are few or missing, and single values can be far off.
# Tests used:
# Assay in all cases: log2 surviving fraction relative to plate median (drug vs vehicle, or drug+dl922-947 vs dl922-947 alone); ovarian cancer lines: OVCAR4 is platinum-sensitive while Ov4Cis resists cisplatin and Ov4Carbo carboplatin; higher = more cell survival
# Conditions in all cases: compound concentration: 10 uM, 192 h
# [1] = tested on: OVCAR4
# [2] = tested on: Ov4Carbo
# [3] = tested on: Ov4Cis
# [4] = dl922-947 oncolytic adenovirus co-treatment: MOI 10
# [5] = dl922-947 oncolytic adenovirus co-treatment: none
smiles,measurement,setting,value
Nc1nccs1 [Aminothiazole],log2 surviving fraction,[1]; [4],-0.9 ± 0.078
same,log2 surviving fraction,[1]; [5],-0.349 ± 0.024
same,log2 surviving fraction,[2]; [4],-0.0602
same,log2 surviving fraction,[2]; [5],0.0305
same,log2 surviving fraction,[3]; [4],0.00246
same,log2 surviving fraction,[3]; [5],-0.663
N=C(N)NC(=O)c1nc(Cl)c(N)nc1N [Amiloride hydrochloride (Midamor)],log2 surviving fraction,[1]; [4],0.679 ± 0.22
same,log2 surviving fraction,[1]; [5],-0.263 ± 0.58
same,log2 surviving fraction,[2]; [4],0.0937
same,log2 surviving fraction,[2]; [5],0.0246
same,log2 surviving fraction,[3]; [4],-0.383
same,log2 surviving fraction,[3]; [5],-0.607
Nc1ccn([C@@H]2O[C@H](CO)[C@@H](O)C2(F)F)c(=O)n1 [Gemcitabine (Gemzar)],log2 surviving fraction,[1]; [4],-6.26 ± 0.57
same,log2 surviving fraction,[1]; [5],-7.15 ± 2.5
same,log2 surviving fraction,[2]; [4],-6.1
same,log2 surviving fraction,[2]; [5],-10.4
same,log2 surviving fraction,[3]; [4],-5.77
same,log2 surviving fraction,[3]; [5],-8.38
C[C@H](CCC(=O)O)[C@H]1CC[C@H]2[C@@H]3CC[C@@H]4C[C@H](O)CC[C@]4(C)[C@H]3CC[C@]12C [Lithocholic acid],log2 surviving fraction,[1]; [4],-0.803 ± 0.71
same,log2 surviving fraction,[1]; [5],0.458 ± 0.69
same,log2 surviving fraction,[2]; [4],-0.382
same,log2 surviving fraction,[2]; [5],0.317
same,log2 surviving fraction,[3]; [4],-0.247
same,log2 surviving fraction,[3]; [5],-0.904
Oc1cc(O)c(Cl)cn1 [Gimeracil],log2 surviving fraction,[1]; [4],0.00362 ± 0.17
same,log2 surviving fraction,[1]; [5],0.0126 ± 0.92
same,log2 surviving fraction,[2]; [4],-0.0772
same,log2 surviving fraction,[2]; [5],0.951
same,log2 surviving fraction,[3]; [4],1.05
same,log2 surviving fraction,[3]; [5],0.808
CC(C)(Oc1ccc(Cl)cc1)C(=O)O [Clofibric acid],log2 surviving fraction,[1]; [4],-0.00636 ± 0.59
same,log2 surviving fraction,[1]; [5],0.78 ± 0.035
same,log2 surviving fraction,[2]; [4],-0.617
same,log2 surviving fraction,[2]; [5],-0.0793
same,log2 surviving fraction,[3]; [4],0.777
same,log2 surviving fraction,[3]; [5],0.635
CN1CCN(CCCN2c3ccccc3Sc3ccc(C(F)(F)F)cc32)CC1 [Trifluoperazine 2HCl],log2 surviving fraction,[1]; [4],-4.47 ± 1.6
same,log2 surviving fraction,[1]; [5],-1.76 ± 0.03
same,log2 surviving fraction,[2]; [4],-5.52
same,log2 surviving fraction,[2]; [5],-3.69
same,log2 surviving fraction,[3]; [4],-4.5
same,log2 surviving fraction,[3]; [5],-3.93
O=C(O)c1ccc(NC(=O)[C@H](Cc2ccc(O)cc2)NC(=O)c2ccccc2)cc1 [Bentiromide],log2 surviving fraction,[1]; [4],0.686 ± 0.11
same,log2 surviving fraction,[1]; [5],0.95 ± 1.1
same,log2 surviving fraction,[2]; [4],0.024
same,log2 surviving fraction,[2]; [5],0.406
same,log2 surviving fraction,[3]; [4],-0.18
same,log2 surviving fraction,[3]; [5],1.13
Cc1nnc(C(=O)NC(C)(C)c2nc(C(=O)NCc3ccc(F)cc3)c(O)c(=O)n2C)o1 [Raltegravir (MK-0518)],log2 surviving fraction,[1]; [4],0.429 ± 0.43
same,log2 surviving fraction,[1]; [5],0.879 ± 0.46
same,log2 surviving fraction,[2]; [4],0.226
same,log2 surviving fraction,[2]; [5],0.281
same,log2 surviving fraction,[3]; [4],0.285
same,log2 surviving fraction,[3]; [5],0.273
CC(C)c1c(C(=O)Nc2ccccc2)c(-c2ccccc2)c(-c2ccc(F)cc2)n1CC[C@@H](O)C[C@@H](O)CC(=O)O [Atorvastatin calcium (Lipitor)],log2 surviving fraction,[1]; [4],0.11 ± 0.022
same,log2 surviving fraction,[1]; [5],-2.24 ± 0.58
same,log2 surviving fraction,[2]; [4],-1.89
same,log2 surviving fraction,[2]; [5],-3.24
same,log2 surviving fraction,[3]; [4],-0.544
same,log2 surviving fraction,[3]; [5],-1.42
CCOC(=O)[C@H](CCc1ccccc1)N[C@@H](C)C(=O)N1Cc2ccccc2C[C@H]1C(=O)O [Quinapril HCl (Accupril)],log2 surviving fraction,[1]; [4],-0.305 ± 0.35
same,log2 surviving fraction,[1]; [5],0.33 ± 0.49
same,log2 surviving fraction,[2]; [4],0.539
same,log2 surviving fraction,[2]; [5],-0.0911
same,log2 surviving fraction,[3]; [4],-0.413
same,log2 surviving fraction,[3]; [5],0.618
CC1=C(/C=C/C(C)=C/C=C/C(C)=C\C(=O)O)C(C)(C)CCC1 [Isotretinoin],log2 surviving fraction,[1]; [4],0.178 ± 0.4
same,log2 surviving fraction,[1]; [5],-0.324 ± 0.53
same,log2 surviving fraction,[2]; [4],-0.0328
same,log2 surviving fraction,[2]; [5],-1.73
same,log2 surviving fraction,[3]; [4],-0.116
same,log2 surviving fraction,[3]; [5],0.0107
O=c1cc[nH]c(=O)[nH]1 [Uracil],log2 surviving fraction,[1]; [4],0.241 ± 0.45
same,log2 surviving fraction,[1]; [5],0.0209 ± 0.017
same,log2 surviving fraction,[2]; [4],1.53
same,log2 surviving fraction,[2]; [5],0.59
same,log2 surviving fraction,[3]; [4],0.609
same,log2 surviving fraction,[3]; [5],0.0918
O=C(N[C@H](CO)[C@H](O)c1ccc([N+](=O)[O-])cc1)C(Cl)Cl [Chloramphenicol (Chloromycetin)],log2 surviving fraction,[1]; [4],0.294 ± 0.28
same,log2 surviving fraction,[1]; [5],0.311 ± 0.42
same,log2 surviving fraction,[2]; [4],-0.802
same,log2 surviving fraction,[2]; [5],-1.05
same,log2 surviving fraction,[3]; [4],0.275
same,log2 surviving fraction,[3]; [5],0.421
Cc1cc(NC(=O)C2=C(O)c3ccccc3S(=O)(=O)N2C)no1 [Isoxicam],log2 surviving fraction,[1]; [4],0.447 ± 0.15
same,log2 surviving fraction,[1]; [5],-0.357 ± 0.16
same,log2 surviving fraction,[2]; [4],-0.016
same,log2 surviving fraction,[2]; [5],-0.13
same,log2 surviving fraction,[3]; [4],-0.0919
same,log2 surviving fraction,[3]; [5],0.0909
CC(=O)O[C@]1(C(C)=O)CC[C@H]2[C@@H]3C=C(C)C4=CC(=O)CC[C@]4(C)[C@H]3CC[C@@]21C [Megestrol Acetate],log2 surviving fraction,[1]; [4],0.543 ± 0.77
same,log2 surviving fraction,[1]; [5],0.0705 ± 0.25
same,log2 surviving fraction,[2]; [4],0.586
same,log2 surviving fraction,[2]; [5],-0.0647
same,log2 surviving fraction,[3]; [4],1.37
same,log2 surviving fraction,[3]; [5],0.119
CCc1ccc(CCOc2ccc(CC3SC(=O)NC3=O)cc2)nc1 (configuration not stated) [Pioglitazone (Actos)],log2 surviving fraction,[1]; [4],0.844 ± 0.33
same,log2 surviving fraction,[1]; [5],0.19 ± 0.34
same,log2 surviving fraction,[2]; [4],1.13
same,log2 surviving fraction,[2]; [5],0.731
same,log2 surviving fraction,[3]; [4],0.823
same,log2 surviving fraction,[3]; [5],0.727
OCCOCCN1CCN(C(c2ccccc2)c2ccc(Cl)cc2)CC1 (configuration not stated) [Hydroxyzine 2HCl],log2 surviving fraction,[1]; [4],-0.187 ± 0.95
same,log2 surviving fraction,[1]; [5],0.559 ± 2
same,log2 surviving fraction,[2]; [4],-1.65
same,log2 surviving fraction,[2]; [5],1.57
same,log2 surviving fraction,[3]; [4],-0.427
same,log2 surviving fraction,[3]; [5],0.145
O=c1ccc2ccccc2o1 [Coumarin],log2 surviving fraction,[1]; [4],0.453 ± 1
same,log2 surviving fraction,[1]; [5],0.616 ± 0.07
same,log2 surviving fraction,[2]; [4],0.327
same,log2 surviving fraction,[2]; [5],0.77
same,log2 surviving fraction,[3]; [4],-0.0633
same,log2 surviving fraction,[3]; [5],0.472
O=C(NCCO[N+](=O)[O-])c1cccnc1 [Nicorandil (Ikorel)],log2 surviving fraction,[1]; [4],0.131 ± 0.014
same,log2 surviving fraction,[1]; [5],-0.00818 ± 0.4
same,log2 surviving fraction,[2]; [4],0.735
same,log2 surviving fraction,[2]; [5],-0.0749
same,log2 surviving fraction,[3]; [4],0.527
same,log2 surviving fraction,[3]; [5],0.573
OC(c1ccccc1)(c1ccccc1)C1CCNCC1 [Azacyclonol],log2 surviving fraction,[1]; [4],-1.53 ± 0.15
same,log2 surviving fraction,[1]; [5],-0.732 ± 0.5
same,log2 surviving fraction,[2]; [4],-0.103
same,log2 surviving fraction,[2]; [5],-1.39
same,log2 surviving fraction,[3]; [4],-1.44
same,log2 surviving fraction,[3]; [5],-0.567
CC[C@]1(O)C[C@H]2CN(CCc3c([nH]c4ccccc34)[C@@](C(=O)OC)(c3cc4c(cc3OC)N(C=O)[C@H]3[C@@](O)(C(=O)OC)[C@H](OC(C)=O)[C@]5(CC)C=CCN6CC[C@]43[C@@H]65)C2)C1 [Vincristine],log2 surviving fraction,[1]; [4],-5.37 ± 0.12
same,log2 surviving fraction,[1]; [5],-6.74 ± 4.4
same,log2 surviving fraction,[2]; [4],-4.6
same,log2 surviving fraction,[2]; [5],-9.47
same,log2 surviving fraction,[3]; [4],-5.39
same,log2 surviving fraction,[3]; [5],-9.89
